# Some of the results follow.
# Assays:
# Assay in all cases: glycan array binding signal (z-score within array); higher = stronger binding
# Conditions in all cases: glycan notation: IUPAC condensed, linker removed
# [1] = target: Neu5Ac(a2-6)Gal(b1-4)GlcNAc(b1-3)Gal(b1-4)GlcNAc(b1-3)Gal(b1-4)GlcNAc(b1-2)Man(a1-3)[Neu5Ac(a2-6)Gal(b1-4)GlcNAc(b1-3)Gal(b1-4)GlcNAc(b1-3)Gal(b1-4)GlcNAc(b1-2)Man(a1-6)]GalNAc
# Outline: (§1)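 From the Consortium for Functional Glycomics database, 3228 arrays were curated, keeping only those whose protein sequence was available. Binding is given as a within-array Z-score averaged across arrays sharing a protein sequence and across linkers. Negative Z-scores can be read as non-binding.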
# [2] = target: Neu5Ac(a2-6)Gal(b1-4)GlcNAc(b1-3)Gal(b1-4)GlcNAc(b1-3)GalNAc
# Outline: as §1
# [3] = target: Neu5Ac(a2-6)Gal(b1-4)GlcNAc(b1-3)Gal(b1-4)GlcNAc(b1-3)[Neu5Ac(a2-6)Gal(b1-4)GlcNAc(b1-3)Gal(b1-4)GlcNAc(b1-6)]GalNAc
# Outline: as §1
# [4] = target: Neu5Ac(a2-6)Gal(b1-4)GlcNAc(b1-3)Gal(b1-4)GlcNAc(b1-6)[Gal(b1-3)]GalNAc
# Outline: as §1
# [5] = target: Neu5Ac(a2-6)Gal(b1-4)GlcNAc(b1-3)Gal(b1-4)[Fuc(a1-3)]GlcNAc(b1-3)Gal(b1-4)[Fuc(a1-3)]GlcNAc
# Outline: as §1
# [6] = target: Neu5Ac(a2-6)Gal(b1-4)GlcNAc(b1-3)GalNAc
# Outline: as §1
# [7] = target: Neu5Ac(a2-6)Gal(b1-4)GlcNAc(b1-3)[Neu5Ac(a2-6)Gal(b1-4)GlcNAc(b1-6)]GalNAc
# Outline: as §1
# [8] = target: Neu5Ac(a2-6)Gal(b1-4)GlcNAc(b1-6)GalNAc
# Outline: as §1
# [9] = target: Neu5Ac(a2-6)Gal(b1-4)GlcNAc(b1-6)[Gal(b1-3)GlcNAc(b1-3)]Gal(b1-4)Glc
# Outline: as §1
# [10] = target: Neu5Ac(a2-6)Gal(b1-4)GlcNAc(b1-6)[Gal(b1-3)]GalNAc
# Outline: as §1
# [11] = target: Neu5Ac(a2-6)Gal(b1-4)GlcNAc6S
# Outline: as §1
# Neu5Ac(a2-6)GalNAc = target: Neu5Ac(a2-6)GalNAc
# Outline: as §1
# [12] = target: Neu5Ac(a2-6)GalNAc(b1-4)GlcNAc
# Outline: as §1
# [13] = target: Neu5Ac(a2-6)GalNAc(b1-4)GlcNAc6S
# Outline: as §1
# [14] = target: Neu5Ac(a2-6)GlcNAc(b1-4)GlcNAc
# Outline: as §1
# [15] = target: Neu5Ac(a2-6)GlcNAc(b1-4)GlcNAc(b1-4)GlcNAc
# Outline: as §1
# Neu5Ac(a2-8)Neu5Ac = target: Neu5Ac(a2-8)Neu5Ac
# Outline: as §1
# [16] = target: Neu5Ac(a2-8)Neu5Ac(a2-3)Gal(b1-3)GalNAc(b1-4)[Neu5Ac(a2-3)]Gal(b1-4)Glc
# Outline: as §1
# [17] = target: Neu5Ac(a2-8)Neu5Ac(a2-3)Gal(b1-3)GalNAc(b1-4)[Neu5Ac(a2-8)Neu5Ac(a2-3)]Gal(b1-4)Glc
# Outline: as §1
# [18] = target: Neu5Ac(a2-8)Neu5Ac(a2-3)Gal(b1-4)Glc
# Outline: as §1
# [19] = target: Neu5Ac(a2-8)Neu5Ac(a2-3)Gal(b1-4)GlcNAc
# Outline: as §1
# [20] = target: Neu5Ac(a2-8)Neu5Ac(a2-3)[Gal(b1-3)GalNAc(b1-4)]Gal(b1-4)Glc
# Outline: as §1
# [21] = target: Neu5Ac(a2-8)Neu5Ac(a2-3)[GalNAc(b1-4)]Gal(b1-4)Glc
# Outline: as §1
# [22] = target: Neu5Ac(a2-8)Neu5Ac(a2-8)Neu5Ac
# Outline: as §1
# [23] = target: Neu5Ac(a2-8)Neu5Ac(a2-8)Neu5Ac(a2-3)Gal(b1-4)Glc
# Outline: as §1
# [24] = target: Neu5Ac(a2-8)Neu5Ac(a2-8)Neu5Ac(a2-3)[Gal(b1-3)GalNAc(b1-4)]Gal(b1-4)Glc
# Outline: as §1
# [25] = target: Neu5Ac(a2-8)Neu5Ac(a2-8)Neu5Ac(a2-3)[GalNAc(b1-4)]Gal(b1-4)Glc
# Outline: as §1
# [26] = target: Neu5Ac(a2-8)Neu5Ac(a2-8)Neu5Ac(a2-8)Neu5Ac(a2-3)[GalNAc(b1-4)]Gal(b1-4)Glc
# Outline: as §1
# [27] = target: Neu5Ac(a2-8)Neu5Gc(a2-3)Gal(b1-4)GlcNAc
# Outline: as §1
# [28] = target: Neu5Ac(b2-6)Gal(b1-4)GlcNAc
# Outline: as §1
# Neu5Ac(b2-6)GalNAc = target: Neu5Ac(b2-6)GalNAc
# Outline: as §1
# [29] = target: Neu5Ac9Ac(a2-3)Gal(b1-3)GlcNAc
# Outline: as §1
# [30] = target: Neu5Ac9Ac(a2-3)Gal(b1-4)GlcNAc
# Outline: as §1
# [31] = target: Neu5Ac9Ac(a2-6)Gal(b1-4)GlcNAc
# Outline: as §1
# [32] = target: Neu5Gc(a2-3)Gal(b1-3)GlcNAc
# Outline: as §1
# [33] = target: Neu5Gc(a2-3)Gal(b1-3)[Fuc(a1-4)]GlcNAc
# Outline: as §1
# Neu5Gc(a2-3)Gal(b1-4)Glc = target: Neu5Gc(a2-3)Gal(b1-4)Glc
# Outline: as §1
# [34] = target: Neu5Gc(a2-3)Gal(b1-4)GlcNAc
# Outline: as §1
# [35] = target: Neu5Gc(a2-3)Gal(b1-4)GlcNAc(b1-3)Gal(b1-4)GlcNAc(b1-2)Man(a1-3)[Neu5Gc(a2-3)Gal(b1-4)GlcNAc(b1-3)Gal(b1-4)GlcNAc(b1-2)Man(a1-6)]Man(b1-4)GlcNAc(b1-4)GlcNAc
# Outline: as §1
# [36] = target: Neu5Gc(a2-3)Gal(b1-4)[Fuc(a1-3)]GlcNAc
# Outline: as §1
# [37] = target: Neu5Gc(a2-6)Gal(b1-4)GlcNAc
# Outline: as §1
# Neu5Gc(a2-6)GalNAc = target: Neu5Gc(a2-6)GalNAc
# Outline: as §1
# [38] = target: Neu5Gc(a2-8)Neu5Ac(a2-3)Gal(b1-4)GlcNAc
# Outline: as §1
# [39] = target: Neu5Gc(a2-8)Neu5Gc(a2-3)Gal(b1-4)GlcNAc
# Outline: as §1
# [40] = target: Neu5Gc(a2-8)Neu5Gc(a2-3)Gal(b1-4)GlcNAc(b1-3)Gal(b1-4)GlcNAc
# Outline: as §1
# [41] = target: Neu5Gc(a2-8)Neu5Gc(a2-6)Gal(b1-4)GlcNAc
# Outline: as §1
# [42] = target: Neu5Gc(b2-6)Gal(b1-4)GlcNAc
# Outline: as §1
binder,measurement,setting,value
CAA (Caragana arborescens) (protein) VAVEFDTFDNPDWDPRTKHIGIDVNSIRSNKTTQWGFWNRQVADVDISYEASSKTLNVSLYYPGESYIVTDVVDLKDILPEWVRIGF,glycan array binding signal (z-score),[1],-0.137
same,glycan array binding signal (z-score),[2],-0.261
same,glycan array binding signal (z-score),[3],-0.147
same,glycan array binding signal (z-score),[4],-0.252
same,glycan array binding signal (z-score),[5],-0.245
same,glycan array binding signal (z-score),[6],-0.243
same,glycan array binding signal (z-score),[7],-0.251
same,glycan array binding signal (z-score),[8],-0.236
same,glycan array binding signal (z-score),[9],-0.246
same,glycan array binding signal (z-score),[10],-0.247
same,glycan array binding signal (z-score),[11],-0.24
same,glycan array binding signal (z-score),Neu5Ac(a2-6)GalNAc,-0.245
same,glycan array binding signal (z-score),[12],-0.241
same,glycan array binding signal (z-score),[13],-0.257
same,glycan array binding signal (z-score),[14],-0.247
same,glycan array binding signal (z-score),[15],-0.244
same,glycan array binding signal (z-score),Neu5Ac(a2-8)Neu5Ac,-0.238
same,glycan array binding signal (z-score),[16],-0.246
same,glycan array binding signal (z-score),[17],-0.252
same,glycan array binding signal (z-score),[18],-0.245
same,glycan array binding signal (z-score),[19],-0.248
same,glycan array binding signal (z-score),[20],-0.25
same,glycan array binding signal (z-score),[21],-0.245
same,glycan array binding signal (z-score),[22],-0.249
same,glycan array binding signal (z-score),[23],-0.245
same,glycan array binding signal (z-score),[24],-0.226
same,glycan array binding signal (z-score),[25],-0.23
same,glycan array binding signal (z-score),[26],-0.245
same,glycan array binding signal (z-score),[27],-0.246
same,glycan array binding signal (z-score),[28],-0.237
same,glycan array binding signal (z-score),Neu5Ac(b2-6)GalNAc,-0.245
same,glycan array binding signal (z-score),[29],-0.244
same,glycan array binding signal (z-score),[30],-0.224
same,glycan array binding signal (z-score),[31],-0.245
same,glycan array binding signal (z-score),[32],-0.242
same,glycan array binding signal (z-score),[33],-0.241
same,glycan array binding signal (z-score),Neu5Gc(a2-3)Gal(b1-4)Glc,-0.237
same,glycan array binding signal (z-score),[34],-0.238
same,glycan array binding signal (z-score),[35],-0.242
same,glycan array binding signal (z-score),[36],-0.243
same,glycan array binding signal (z-score),[37],-0.242
same,glycan array binding signal (z-score),Neu5Gc(a2-6)GalNAc,-0.233
same,glycan array binding signal (z-score),[38],-0.253
same,glycan array binding signal (z-score),[39],-0.236
same,glycan array binding signal (z-score),[40],-0.245
same,glycan array binding signal (z-score),[41],-0.252
same,glycan array binding signal (z-score),[42],-0.237

# From the supplement of paper PMC8728848
